Results as given in PubChem BioAssay AID504339 (National Center for Advancing Translational Sciences (NCATS), 2011).
“And” between values parts separate entries of the source, which are not always exact repeats. Equal values may be shown once. Out of some 390,000 compounds screened, about 17,000 (4.4%) were called active. Inconclusive results, whose numbers are uncertain, are shown with a selection of clear calls. The call rests on the fitted dose curve; in most records, active means well fitted inhibition curve with a large enough effect; inconclusive means small, poorly fitted or top-dose-only effect; inactive means no such curve, though single readings can be large or run the other way. Potencies of inconclusive entries are doubtful fits and often do not repeat.

Target: Lysine-specific demethylase 4A (Homo sapiens) (UniProt O75164)
Sequence of UniProt O75164 (O75164 whole entry, looked up, the tested form may be a part): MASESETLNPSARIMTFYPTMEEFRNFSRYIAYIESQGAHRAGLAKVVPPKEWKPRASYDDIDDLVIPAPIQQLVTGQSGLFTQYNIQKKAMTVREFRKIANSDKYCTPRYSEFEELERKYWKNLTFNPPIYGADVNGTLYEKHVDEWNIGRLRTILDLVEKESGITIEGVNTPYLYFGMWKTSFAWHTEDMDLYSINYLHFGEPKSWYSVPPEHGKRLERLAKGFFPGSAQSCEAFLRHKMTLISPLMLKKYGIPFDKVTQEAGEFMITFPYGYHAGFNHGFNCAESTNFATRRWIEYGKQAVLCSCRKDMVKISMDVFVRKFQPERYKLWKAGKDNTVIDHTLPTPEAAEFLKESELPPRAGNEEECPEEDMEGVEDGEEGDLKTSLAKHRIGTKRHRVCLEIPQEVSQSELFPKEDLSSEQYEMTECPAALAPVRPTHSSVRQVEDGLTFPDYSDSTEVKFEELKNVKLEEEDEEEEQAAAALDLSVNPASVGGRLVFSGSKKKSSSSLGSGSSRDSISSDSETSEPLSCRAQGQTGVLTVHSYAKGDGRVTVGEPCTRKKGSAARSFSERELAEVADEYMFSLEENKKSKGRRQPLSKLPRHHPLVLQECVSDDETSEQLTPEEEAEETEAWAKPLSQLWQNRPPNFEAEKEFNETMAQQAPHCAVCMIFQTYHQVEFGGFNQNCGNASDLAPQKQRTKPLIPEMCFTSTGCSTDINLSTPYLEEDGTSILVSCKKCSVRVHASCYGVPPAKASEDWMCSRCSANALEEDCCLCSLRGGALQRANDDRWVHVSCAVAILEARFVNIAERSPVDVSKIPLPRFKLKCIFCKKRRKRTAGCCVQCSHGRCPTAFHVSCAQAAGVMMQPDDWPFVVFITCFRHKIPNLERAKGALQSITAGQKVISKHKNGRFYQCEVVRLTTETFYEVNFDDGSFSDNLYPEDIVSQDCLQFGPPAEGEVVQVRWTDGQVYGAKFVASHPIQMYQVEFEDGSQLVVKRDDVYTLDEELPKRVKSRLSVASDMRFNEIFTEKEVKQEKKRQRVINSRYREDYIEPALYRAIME
Assay: qHTS Assay for Inhibitors of JMJD2A-Tudor Domain; further: nearly all actives have a fitted effect of over 50% in size
Settings: AlphaScreen JMJD2A-Tudor / H3K4me3 peptide binding; activity change, negative = inhibition: at 114 µM (top of the series)
On the % scale 0 is the no-effect control and ±100 the full control effect; potency means the concentration at half of the fitted maximal effect; tags describe the fitted curve by direction and shape.

Row | SMILES | Potency | activity change, negative = inhibition
1 | COc1ccccc1C(=O)/C=C/c1ccc(N2CCCCC2)c([N+](=O)[O-])c1 | active: 8.91 µM | 
2 | O=S(=O)(O)c1cc(Cl)cc(N=Nc2ccc(O)cc2O)c1O | active: 20 µM | 
3 | Cc1cc(C)cc(-n2ccnc2SCC(=O)Nc2ccc(C)c(Cl)c2)c1 | inconclusive: 35.5 µM [inhibitor, full curve] | 
4 | CCOC(=O)CCCCC(=O)c1[nH]c(=O)[nH]c1Cn1cnc2ccccc21 | inconclusive: 56.2 µM [inhibitor, partial curve] | 
5 | Clc1cc(NCc2cccs2)ccc1N1CCOCC1 | inconclusive: 50.1 µM [inhibitor, partial curve] | 
6 | Cc1cccc(NC2=C(NC(=O)c3ccccc3)C(=O)c3ccccc3C2=O)c1 | active: 25.1 µM | 
7 | Nc1ccccc1-c1n[nH]c(=S)s1 | active: 28.2 µM | 
8 | COC(=O)c1nc(N)sc1C | inconclusive: 39.8 µM [inhibitor, single point] | 
9 | CC1=NN(c2ccccc2)C(=O)/C1=C/N(C)C |  | inactive: -10.6%
10 | Cc1ccc(NC(=O)CNc2ccccc2N2CCCC2=O)cc1S(=O)(=O)N1CCCCC1 |  | inactive: -30.5%
11 | COc1ccc(-c2csc(-c3c(N)c(C(=O)c4ccccc4)n4ccccc34)n2)cc1 |  | inactive: -18.8%
12 | CC(C)(C)OC(=O)NCCCCC1=CC2=CC(=O)C(C)(O)C(=O)C2=CO1 (stereo not given) | inconclusive: 20 µM [inhibitor, partial curve] | 
13 | COc1ccc(CCNC(=O)/C=C/c2ccco2)cc1 | active: 31.6 µM | 
14 | Cc1ccc2[nH]c(=O)c(C(c3nnnn3Cc3ccccc3)N3CCc4ccccc43)cc2c1 (stereo not given) | inconclusive: 22.4 µM [inhibitor, full curve, poor fit] | 
15 | COc1ccc(N2CCN(Cc3nc(-c4ccc(C)cc4)no3)CC2)cc1 | inconclusive: 15.8 µM [inhibitor, full curve, poor fit] | 
16 | COC(C(=O)Nc1ccnn1C1CCN(C(=O)c2cccc(F)c2)CC1)c1ccccc1 (stereo not given) | inconclusive: 4.47 µM [inhibitor, single point] | 
17 | O=C(CN1CCN(c2ccccc2)CC1)Nc1ccc(OCc2ccccc2)cc1 | inconclusive: 44.7 µM [inhibitor, partial curve] | 
18 | Nc1nc(N)nc(-c2ccc(Oc3ccccc3)cc2)n1 |  | inactive: -16.9%
19 | Cc1ccc(-c2nc3cc(NC(=O)c4cc(Br)ccc4Cl)ccc3o2)cc1 |  | inactive: -11.8%
20 | Clc1ccc(C=NN2CCCCCC2)c(Cl)c1 | inconclusive: 56.2 µM [inhibitor, partial curve] | 
21 | C[N+](C)(C)CCNC(=O)c1cc[n+](Cc2ccccc2)c(/C=N/O)c1 | inconclusive: 39.8 µM [inhibitor, single point] | 
22 | Cc1cc(O)c(C(C)C)cc1N=Nc1ccccc1C(=O)O | inconclusive: 44.7 µM [inhibitor, partial curve] | 
23 | CCN(CC)S(=O)(=O)c1ccc(OCC(=O)NC(=O)Cc2ccccc2)c([N+](=O)[O-])c1 | inconclusive: 39.8 µM [inhibitor, partial curve] | 
24 | Cc1cc(C)c(C#N)c(SCC(=O)Nc2cccc(S(=O)(=O)N3CCCC3)c2)n1 |  | inactive: -8.22%

Row | SMILES | Potency | activity change, negative = inhibition
25 | COC(=O)/C(=C\c1ccc([N+](=O)[O-])cc1)NC(=O)c1ccccc1 |  | inactive: -8.97%
26 | CCOC(=O)c1c(C)[nH]c(-c2csc(N)n2)c1C | inconclusive: 56.2 µM [inhibitor, partial curve] | 
27 | COc1ccc(/C=N/NC(=O)c2ccc(O)cc2O)cc1CSc1ccccn1 | inconclusive: 70.8 µM [inhibitor, single point] | 
28 | NC(=O)c1ncn([C@@H]2O[C@H](CNCc3ccc(OCC(=O)Nc4nccs4)cc3)[C@@H](O)[C@H]2O)n1 | inconclusive: 89.1 µM [inhibitor, partial curve] | 
29 | C/C(CC(=O)NCc1ccc(F)cc1)=N\NC(N)=S | inconclusive: 1.78 µM [inhibitor, partial curve, poor fit] | 
30 | O=C(O)c1ccccc1N/N=C/c1c(Sc2nnnn2-c2ccccc2)nc2ccccn2c1=O | inconclusive: 17.8 µM [inhibitor, full curve] | 
31 | COc1ccccc1-c1sc2cc3c(cc2c1C#Cc1cncn1C)OCO3 | active: 20 µM | 
32 | Cc1c(Nc2scc(-c3ccccc3)[n+]2-c2ccccc2)c(=O)n(-c2ccccc2)n1C | active: 56.2 µM | 
33 | Cn1c(=O)c2c(nc(N3CCN(c4ccccn4)CC3)n2Cc2ccc(Cl)cc2Cl)n(C)c1=O |  | inactive: -18.2%
34 | CC(C)(C)C(CN1CCCC1)OC(=O)c1ccccc1 (stereo not given) |  | inactive: -6.62%
35 | CC(=O)Oc1ccc(/C=C2/SC(=S)N(Cc3ccccc3)C2=O)cc1 | inconclusive: 5.62 µM [inhibitor, full curve] | 
36 | O=C(NCCCc1ccccc1)c1cnc2n(c1=O)CCS2 |  | inactive: -8.33%
37 | CSc1nn(Cc2ccc(F)cc2)c(N)c1S(=O)(=O)c1ccc(Cl)cc1 |  | inactive: -12.3%
38 | CC(C)=CCCC1(C)C=Cc2c(c(C)cc3c2[nH]c2cc(O)ccc23)O1 (stereo not given) | active: 44.7 µM | 
39 | COc1cc(O)c(C(CC(=O)N2CCOCC2)c2ccc(N(C)C)cc2)c(OC)c1 (stereo not given) | inactive and inconclusive: 56.2 µM [inhibitor, partial curve] | 
40 | O=C(CCCCC(=O)NCCCc1ccccc1)NCCCc1ccccc1 |  | inactive: 7.48%
41 | COc1ccc(-c2nc3ccccn3c2/N=C/c2ccc(OC)c(OC)c2)cc1O | inconclusive: 70.8 µM [inhibitor, single point] | 
42 | CN1CCN(c2ccc(Cl)cc2NC(=O)CCN2C(=O)c3ccccc3C2=O)CC1 | inconclusive: 50.1 µM [inhibitor, partial curve] | 
43 | Cc1ccccc1S(=O)(=O)Cc1ccc(C(=O)N2CC(C)CC(C)C2)o1 (stereo not given) |  | inactive: -9.66%
44 | O=C1C(=O)N(c2cccc(Cl)c2)C(c2ccccc2[N+](=O)[O-])/C1=C(\O)c1ccccc1 (stereo not given) | inconclusive: 79.4 µM [inhibitor, partial curve] | 
45 | CC(=O)N1CCc2cc(S(=O)(=O)NCCCN3CCC(C)CC3)ccc21 |  | inactive: -1.5%
46 | CCc1cc2c(NCC3CCCO3)ncnc2s1 (stereo not given) | inconclusive: 56.2 µM [inhibitor, partial curve] | 
47 | COc1cccc(S(=O)(=O)NCc2ccc(C(=O)NCc3ccco3)cc2)c1 |  | inactive: -33.1%
48 | CC(CNC(=O)Cn1ccc(N)nc1=O)c1ccccc1 (stereo not given) |  | inactive: 0.714%

Row | SMILES | Potency | activity change, negative = inhibition
49 | C[C@H]1c2cccc(O)c2C(O)=C2C(=O)[C@]3(O)C(O)=C(C(N)=O)C(=O)[C@@H](N(C)C)[C@@H]3[C@@H](O)[C@@H]21 | active: 12.6 µM | 
50 | CC1Cc2ccccc2N1C(=O)CNc1ccccc1N1CCCCC1 (stereo not given) | inconclusive: 44.7 µM [inhibitor, partial curve] | 
51 | COc1ccc(NS(=O)(=O)c2cc3c(cc2C)N(C)CCO3)c(OC)c1 | inconclusive: 39.8 µM [inhibitor, partial curve] | 
52 | Cc1cccnc1CCNC(=O)c1ccc(OC2CCN(Cc3ccccn3)CC2)cc1 | inconclusive: 31.6 µM [inhibitor, partial curve] | 
53 | CCN(CC)c1ccc(NC(=O)C2=CC=CN3CCS(=O)(=O)N=C23)cc1 | inconclusive: 25.1 µM [inhibitor, full curve] | 
54 | Cc1ccc(SCC(Cc2ccccc2)N2CCN(CCc3ccccc3)CCC2=O)cc1 (stereo not given) | inconclusive: 22.4 µM [inhibitor, full curve] | 
55 | Cc1ccc(-c2cc(C(F)F)n3ncc(C(=O)N4CCc5ccccc5C4)c3n2)cc1 |  | inactive: 24.1%
56 | CC(=O)Nc1sc(N/N=C\c2ccccc2Cl)nc1-c1cccs1 | inconclusive: 31.6 µM [inhibitor, full curve, poor fit] | 
57 | CC(=O)/C(=N/Nc1ccccc1)Sc1nnc(CCc2ccccc2)n1-c1ccccc1 | inconclusive: 56.2 µM [inhibitor, partial curve] | 
58 | COc1ccc(-c2cc(C(=O)NCCCN3CCOCC3)c3cc(C(C)C)ccc3n2)cc1 | inconclusive: 35.5 µM [inhibitor, full curve] | 
59 | CN(C)CCNc1ccc2ncn3c4ccc(O)cc4c(=O)c1c23 | inconclusive: 22.4 µM [inhibitor, full curve, poor fit] | 
60 | COC(=O)C1=C(C)NC(=O)C1(NC(=O)c1ccncc1)C(F)(F)F (stereo not given) | inconclusive: 31.6 µM [inhibitor, single point] | 
61 | COc1ccc(NC(=O)CC2C(=O)N(c3ccc(C)cc3)C(=O)N2Cc2ccc(C)cc2)cc1 (stereo not given) |  | inactive: -10.3%
62 | Cc1cccc(NC(=O)C2CCN(C(=O)c3ccco3)CC2)c1C | inconclusive: 0.794 µM [inhibitor, full curve] | 
63 | CCOC(=O)C(=CNNc1cccc(Cl)c1)C(=O)OCC | active: 79.4 µM | 
64 | COc1ccc(CCNC(=O)Cn2nc(C)c3c(C)n(-c4ccc(C)cc4)nc3c2=O)c(OC)c1 | inconclusive: 79.4 µM [inhibitor, partial curve] | 
65 | O=C(N/N=C/c1ccc(O)c(O)c1)C1c2ccccc2Oc2ccccc21 | inconclusive: 25.1 µM [inhibitor, full curve] | 
66 | COc1ccc(C(=O)Nc2ccc(NC(=O)c3cccc(F)c3)cn2)cc1 | inconclusive: 50.1 µM [inhibitor, partial curve] | 
67 | Cc1cccc(Nc2nc(-c3ccc(F)c(C)c3)cs2)n1 |  | inactive: -28.7%
68 | COc1ccc(-c2csc(Nc3ccc(S(=O)(=O)Nc4cc(C)on4)cc3)n2)cc1 | inconclusive: 63.1 µM [inhibitor, partial curve] | 
69 | Cc1ccc(Cl)cc1Nc1nc(-c2sc(NC(=O)C(C)(C)C)nc2C)cs1 | inconclusive: 56.2 µM [inhibitor, partial curve] | 
70 | COc1ccc(C(CNC(=O)c2ccc(-c3nc4ccccc4s3)o2)N2CCCC2)cc1 (stereo not given) | inconclusive: 56.2 µM [inhibitor, partial curve] | 
